Source: the supplement of paper PMC4967469
Lines with a small IC50 respond at low doses; a limit (>, <) means that the fit lies beyond the doses tested. AUC is the area under the same curve over the 256-fold range up to the top dose, as a fraction; it is 1 without any effect and falls as sensitivity rises.

compound: NC1(c2ccc(-c3nc4ccn5c(=O)[nH]nc5c4cc3-c3ccccc3)cc2)CCC1 [MK-2206]; test: Viability of human cancer cell lines after 72 h of drug (GDSC screen)
Description: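 Human cancer cell lines in 384-well plates, medium with 10% serum, drug for 72 h over a 256-fold dose range (nine 2-fold or five 4-fold steps up to the top dose). Adherent lines were fixed and stained with the nucleic acid dye Syto60, suspension lines read with resazurin; signal relative to control wells, capped at 0 and 100%. One two-parameter sigmoid per drug and line, fitted in a mixed model over all curves with the slope shared within a line.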

Q: With “CHP-134 (neuroblastoma, suspension, top dose 4 µM)” as the cell line, how does the AUC read?
A: Its AUC is 0.92.

Q: And the IC50?
A: The IC50 was over 4 µM.

Q: Which results are given for “CHP-212 (neuroblastoma, adherent, top dose 4 µM)”?
A: AUC: 0.754; IC50: 1.26 µM

Q: For “CHSA0011 (chondrosarcoma, adherent, top dose 4 µM)”, which AUC is on record?
A: Its AUC is 0.771.

Q: And the IC50?
A: The IC50 was 2.18 µM.

Q: For “CHSA0108 (chondrosarcoma, adherent, top dose 4 µM)”, which AUC is on record?
A: The AUC was 0.828.

Q: What about the IC50 of the same cell line?
A: Its IC50 is 3 µM.

Q: With “CHSA8926 (chondrosarcoma, adherent, top dose 4 µM)” as the cell line, how does the AUC read?
A: Its AUC is 0.827.

Q: And the IC50?
A: Its IC50 is over 4 µM.

Q: With “CL-11 (large intestine, adherent, top dose 4 µM)” as the cell line, how does the AUC read?
A: Its AUC is 0.856.

Q: What about the IC50 of the same cell line?
A: Its IC50 is 3.88 µM.

Q: With “CL-34 (large intestine, adherent, top dose 4 µM)” as the cell line, how does the AUC read?
A: The AUC was 0.898.

Q: And the IC50?
A: The IC50 was over 4 µM.

Q: “CL-40 (large intestine, adherent, top dose 4 µM)” was tested. Which AUC did it give?
A: Its AUC is 0.863.

Q: And the IC50?
A: The IC50 was over 4 µM.

Q: How did the AUC turn out when “CMK (acute myeloid leukaemia, suspension, top dose 4 µM)” was run?
A: Its AUC is 0.991.

Q: What about the IC50 of the same cell line?
A: The IC50 was over 4 µM.

Q: For “CML-T1 (chronic myeloid leukaemia, suspension, top dose 4 µM)”, which AUC is on record?
A: The AUC was 0.925.

Q: What about the IC50 of the same cell line?
A: Its IC50 is over 4 µM.

Q: “COLO-205 (large intestine, suspension, top dose 4 µM)” was tested. Which AUC did it give?
A: The AUC was 0.848.

Q: And the IC50?
A: Its IC50 is 2.91 µM.

Q: How did the AUC turn out when “COLO-320-HSR (large intestine, suspension, top dose 4 µM)” was run?
A: The AUC was 0.876.

Q: What about the IC50 of the same cell line?
A: Its IC50 is 3.07 µM.

Q: “COLO-668 (small cell lung carcinoma, adherent, top dose 4 µM)” was tested. Which AUC did it give?
A: Its AUC is 0.962.

Q: And the IC50?
A: The IC50 was over 4 µM.

Q: “COLO-678 (large intestine, semi-adherent, top dose 4 µM)” was tested. Which AUC did it give?
A: The AUC was 0.98.

Q: What about the IC50 of the same cell line?
A: The IC50 was over 4 µM.

Q: For “COLO-679 (melanoma, adherent, top dose 4 µM)”, which AUC is on record?
A: The AUC was 0.964.

Q: And the IC50?
A: The IC50 was over 4 µM.

Q: Which AUC does the source give for “COLO-680N (oesophagus, adherent, top dose 4 µM)” here?
A: The AUC was 0.967.

Q: What about the IC50 of the same cell line?
A: Its IC50 is over 4 µM.

Q: Which AUC does the source give for “COLO-684 (endometrium, suspension, top dose 4 µM)” here?
A: The AUC was 0.563.

Q: And the IC50?
A: The IC50 was 0.381 µM.

Q: Which results are given for “COLO-783 (melanoma, adherent, top dose 4 µM)”?
A: AUC: 0.931; IC50: > 4 µM

Q: With “COLO-800 (melanoma, adherent, top dose 4 µM)” as the cell line, how does the AUC read?
A: The AUC was 0.889.

Q: What about the IC50 of the same cell line?
A: Its IC50 is over 4 µM.

Q: For “COLO-824 (breast, adherent, top dose 4 µM)”, which AUC is on record?
A: Its AUC is 0.966.

Q: And the IC50?
A: Its IC50 is over 4 µM.

Q: What does the source list for “COR-L23 (large cell lung carcinoma, adherent, top dose 4 µM)”?
A: AUC: 0.928; IC50: > 4 µM

Q: Which AUC does the source give for “COR-L88 (small cell lung carcinoma, adherent, top dose 4 µM)” here?
A: Its AUC is 0.986.

Q: And the IC50?
A: The IC50 was over 4 µM.

Q: Which AUC does the source give for “COR-L95 (small cell lung carcinoma, adherent, top dose 4 µM)” here?
A: Its AUC is 0.848.

Q: And the IC50?
A: Its IC50 is 3.71 µM.

Q: “COR-L279 (small cell lung carcinoma, suspension, top dose 4 µM)” was tested. Which AUC did it give?
A: Its AUC is 0.981.

Q: What about the IC50 of the same cell line?
A: The IC50 was over 4 µM.

Q: “COR-L321 (lung, suspension, top dose 4 µM)” was tested. Which AUC did it give?
A: The AUC was 0.989.

Q: What about the IC50 of the same cell line?
A: Its IC50 is over 4 µM.

Q: How did the AUC turn out when “CP50-MEL-B (melanoma, adherent, top dose 4 µM)” was run?
A: The AUC was 0.978.

Q: What about the IC50 of the same cell line?
A: Its IC50 is over 4 µM.

Q: Which results are given for “CP66-MEL (melanoma, adherent, top dose 4 µM)”?
A: AUC: 0.841; IC50: 3.36 µM

Q: For “CPC-N (small cell lung carcinoma, suspension, top dose 4 µM)”, which AUC is on record?
A: Its AUC is 0.911.

Q: And the IC50?
A: Its IC50 is over 4 µM.

Q: Which AUC does the source give for “CRO-AP2 (B-cell lymphoma, suspension, top dose 4 µM)” here?
A: Its AUC is 0.499.

Q: And the IC50?
A: Its IC50 is 0.249 µM.

Q: For CS1 (bone, adherent, top dose 4 µM), which AUC is on record?
A: Its AUC is 0.81.

Q: And the IC50?
A: Its IC50 is 2.4 µM.

Q: Which AUC does the source give for “CTB-1 (B-cell lymphoma, suspension, top dose 4 µM)” here?
A: The AUC was 0.803.

Q: And the IC50?
A: The IC50 was 2.89 µM.

Q: Which AUC does the source give for “CTV-1 (acute myeloid leukaemia, suspension, top dose 4 µM)” here?
A: Its AUC is 0.858.

Q: What about the IC50 of the same cell line?
A: The IC50 was 2.31 µM.
